This is an account of results in PubChem BioAssay AID485344 (National Center for Advancing Translational Sciences (NCATS), 2010).

Among all 340,000 compounds or so, about 6,900 (2%) were called active. Cut-off read from the data, not from the text of the source: active = inhibition above about 30%; inactive = below that, where a call was filed. The entries are a selection whose mix differs from that of the whole data set. Where no call is shown, the source filed none.

UniProt P14416, sequence (P14416 whole entry, looked up): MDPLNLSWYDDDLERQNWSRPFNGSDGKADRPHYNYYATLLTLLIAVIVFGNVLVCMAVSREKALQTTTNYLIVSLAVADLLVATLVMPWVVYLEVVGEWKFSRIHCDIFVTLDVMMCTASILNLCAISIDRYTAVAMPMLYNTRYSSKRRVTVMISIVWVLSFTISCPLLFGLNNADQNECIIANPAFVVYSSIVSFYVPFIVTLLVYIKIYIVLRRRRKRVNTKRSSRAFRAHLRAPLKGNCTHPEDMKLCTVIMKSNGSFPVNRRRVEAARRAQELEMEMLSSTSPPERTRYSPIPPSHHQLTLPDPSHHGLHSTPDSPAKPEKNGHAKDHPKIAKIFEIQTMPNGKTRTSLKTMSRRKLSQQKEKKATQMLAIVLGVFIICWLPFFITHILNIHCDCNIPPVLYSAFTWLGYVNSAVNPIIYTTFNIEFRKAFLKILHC

The assay deals with D(2) dopamine receptor (Homo sapiens) (UniProt P14416). The assay can be described thus: HTS Assay for Allosteric Antagonists of the Human D2 Dopamine Receptor: Primary Screen for Antagonists. Note: 0% is about no effect. Particulars: HEK293 TREx D2 cells, calcium flux, dopamine EC80; at 10 µM; stronger effect = higher value. The method in brief:
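Read-out: kinetic calcium fluorescence (1 cycle/s) in inducible HEK293 T-REx D2 cells after an EC80 dopamine addition that followed 180 s compound preincubation. Loss of the dopamine response indicates antagonism.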
In general terms: Calcium assays in cells follow changes in intracellular calcium, usually with a dye or a luminescent sensor.
In the case of `Cc1ccc(NC(=O)CSc2nc3c([nH]c4ccccc43)c(=O)n2-c2ccccc2)cc1Cl`, the inhibition was -23.7%. For `CCOc1ccc(NC(=O)C2CCN(c3nnc(C)c4c(C)n(-c5ccccc5)nc34)CC2)cc1` the value was 1.52%; for `CCOC(=O)c1c(C)oc2nc(C)nc(N3CCN(c4ccccc4F)CC3)c12`, 0.129%. In the case of `Cc1ccc(-c2[nH]c3c(c2-c2c(-n4cccc4)n(C)c(=O)[nH]c2=O)c(=O)[nH]c(=O)n3C)cc1`, the inhibition was found to be 3.07%. Next, `Cc1ccc(C2Nc3cc(C)c(C)cc3-n3c(-c4ccccc4)c4c(=O)n(C)c(=O)n(C)c4c32)o1` (stereo not drawn): 19.2%; `Cc1cccc(N2CCN(C(=O)C3CCN(C(=O)c4cc5sccc5n4C)CC3)CC2)c1C`: -17.3%; `Cc1[nH]n2c(=O)cc(-c3ccc(Cl)cc3)nc2c1-c1ccccc1`: 22.1%. For `Cc1ccccc1CNC(=O)Cc1ccc(NC(=O)N2CCCCc3ccccc32)cc1`, the inhibition was -2.88%. As for `Cn1c(=O)c2c(nc(N3CCOCC3)n2Cc2cccc(Br)c2)n(C)c1=O`, the inhibition was 5.01%. Next, `Cc1nn2c(-c3ccco3)ccnc2c1-c1ccc(Br)cc1`: 17.9%; `CCOc1ccc(C(=O)c2cn(CC(=O)Nc3cccc(OC)c3)c3cc4c(cc3c2=O)OCCO4)cc1`: -15.4%; `Cc1c(C(=O)N2CCCCC2)c(S(=O)(=O)NCc2ccc(N(C)C)cc2)c(C)n1C`: 5.33%.

In the case of `Cc1ccc(-c2cc(N)n(-c3ccc(C)cc3)n2)cc1`, the inhibition is -4.58%. For `CCOC(=O)C1(CCOC)CCN(Cc2cccc(OCc3ccccc3)c2)CC1` the value was active: 36.9%; for `N#Cc1ccc(S(=O)(=O)N2CCC(Oc3cccc(C(F)(F)F)c3)CC2)cc1`, -12.3%. For `CCCNC(=O)C1=CC(c2ccc3c(c2)OCO3)=NS(=O)(=O)N1C` the value was 16.4%. Next, `COc1cc(OC)c(OC)cc1CN1CCc2nc(Nc3ccc4c(c3)OCCO4)ncc2C1`: 16.5%; `COc1ccc(CNC(=O)C(=O)Nc2c3c(nn2-c2ccccc2)CSC3)cc1`: 22.3%; `CCN(c1ccccc1)S(=O)(=O)c1cc(Br)cc2c1N(C(=O)C1CC1)CC2`: -7.33%. Consider `Cc1ccc(C(=O)N2CCc3cc(CNC(=O)CSc4ccccc4)ccc32)cc1`, for which the inhibition was 15.2%. Regarding `Cc1ccc(-c2cc(C(=O)NCc3cnn(C)c3C)c3ccccc3n2)cc1C`, the inhibition was -2.2%. In the case of `Cc1cccc(-c2c3c(=O)n(C)c(=O)n(C)c3c3c(C)nc4ccccc4n23)c1`, the inhibition is -26.9%.

`N#Cc1c(-c2cccs2)cc(-c2cccnc2)nc1N`: the inhibition is active: 48.7%. For `O=C(NCCc1csc(-c2ccc(C(F)(F)F)cc2)n1)c1ccc(F)c(F)c1` the value was 23.5%. With `CCOc1ccc(-c2cc(CCCC(=O)NCCc3ccc(Cl)cc3)no2)cc1`, the inhibition was determined as 6.54%.

On to `COC(=O)c1c(-c2cccs2)csc1NC(=O)c1ccc(Br)cc1`, for which the inhibition is 0.779%. Next, `COC(=O)c1c(-c2cccs2)csc1NC(=O)c1cccc(Cl)c1`: 3.31%; `Cc1cccc(NC(=O)CSc2nc(-c3cccs3)cc(C(F)(F)F)c2C#N)c1C`: -15.4%; `CCN(c1cccc(C)c1)S(=O)(=O)c1ccc(-n2cccn2)cc1`: 3.52%.

Consider `CCc1ccc(NC(=O)CCS(=O)(=O)c2cc3c(cc2Cl)NC(=O)CO3)cc1`, for which the inhibition was found to be 23.4%. `O=C(NCc1cccs1)c1nn(-c2ccccc2Cl)nc1CO`: the inhibition is -9.35%. For `COCCCNc1nc2c(S(=O)(=O)c3ccccc3)nnn2c2ccc(Cl)cc12` the value was 5.4%; for `CC1=C(C(=O)Nc2ccccc2)C(c2ccccc2C)n2nc(SCC(=O)c3ccc(C)cc3)nc2N1` (stereo not drawn), 1.65%; for `Cc1[nH]n(-c2ccccc2)c(=O)c1C(c1cc(Cl)ccc1O)c1c(C)[nH]n(-c2ccccc2)c1=O`, 5.82%. `CCOC(=O)c1ccccc1NC(=O)N1CCN(Cc2cc(=O)n3nc(-c4ccccc4)sc3n2)CC1`: the inhibition is -20%. On to `CC1CCN(C(=O)Cn2c(=O)n(CCCCCC(=O)NCc3ccccc3Cl)c(=O)c3sccc32)CC1`, for which the inhibition was 14%. Turning to `CC(=O)Nc1cc(-c2nc3cc(Cl)ccc3o2)ccc1C`, the inhibition was determined as 11%.

With `Cc1cc(Cl)ccc1NC(=O)Cn1nc(C)c2c(C)n(-c3ccccc3)nc2c1=O`, the inhibition was -1.99%.

With `Cc1ccc(Cl)cc1Nc1nn2c(=O)c3ccc(C(=O)Nc4ccc(F)cc4)cc3nc2s1`, the inhibition was 11.2%. In the case of `CN(C)C1(CNC(=O)COc2ccc([N+](=O)[O-])cc2)CCCCC1`, the inhibition is 16.7%. Regarding `CCC1CN(C(=O)N2CCC(C(=O)NCCc3cc(OC)ccc3OC)CC2)c2ccccc2O1` (stereo not drawn), the inhibition is -2.07%.

Consider `CCN(CC)S(=O)(=O)c1ccc2c(c1)N(CC(=O)N1CCN(c3cccc(Cl)c3)CC1)C(=O)CO2`, for which the inhibition is -6.12%. Next, `CCn1c(CN2CCOCC2)nc2cc(NC(=O)c3ccccc3[N+](=O)[O-])ccc21`: 8.64%; `Cc1ccc(NC(=O)N2CCc3cc(S(=O)(=O)N4CCC(C)CC4)ccc32)cc1`: 2.77%. In the case of `CC(C)Oc1ccc(CNC(=O)c2ccc(CS(=O)c3cccc(Cl)c3)o2)cc1` (stereo not drawn), the inhibition was -5.97%.

Turning to `COc1ccccc1N1CCN(C(=O)Cn2ncc3ccsc3c2=O)CC1`, the inhibition came out at 0.858%.

With `COc1cccc(-n2cc(C(=O)Nc3cccc(C(F)(F)F)c3)c3ccccc3c2=O)c1`, the inhibition came to 12.8%. For `CCN(C(=O)Cn1c(=O)n(CCCS(=O)(=O)C2CCCCC2)c(=O)c2ccccc21)c1cccc(C)c1` the value was -7.82%; for `O=C(Nc1nnc(-c2cc(Cl)ccc2Cl)o1)c1ccc2c(c1)OCCO2`, -6.58%; for `CCOC(=O)C1CCC(CN(Cc2ccc(OC)cc2)S(=O)(=O)c2ccc(F)c(C(=O)Nc3ccc(C)c(C)c3)c2)CC1` (stereo not drawn), -24.4%. Turning to `CCc1ccc(NS(=O)(=O)c2ccc3oc(=O)c4ncn(CC)c4c3c2)cc1`, the inhibition was 7.37%. Next, `O=c1cc(CSc2ncn[nH]2)[nH]c2ccc(F)cc12`: 5%. Consider `COc1ccc(-n2c(Cc3ccccc3)nnc2SCc2nc(-c3cccs3)no2)cc1`, for which the inhibition worked out at 4.27%. For `CCCc1cc(=O)n2c(C(=O)Nc3ccc(OCC)cc3)c(C(=O)Nc3ccc(C)cc3)sc2n1` the value was -16.6%; for `COc1ccc(NC(=O)CCS(=O)(=O)c2nc(-c3cccs3)cc(C(F)(F)F)n2)cc1`, 10.9%.

In the case of `COc1cccc(C2c3c(oc4cc(C)cc(C)c4c3=O)C(=O)N2CCc2ccc(OC)c(OC)c2)c1` (stereo not drawn), the inhibition was determined as 12.2%. For `O=[N+]([O-])c1ccc(N2CCN(CCO)CC2)cc1NCc1ccco1`, the inhibition is active: 34.1%. Take `Cn1c(COc2ccccc2)nnc1SCc1cc(=O)[nH]c2ccccc12`: the inhibition is active: 38.7%.

For the compound `CCn1c(SCc2ccccc2C)nc(=O)c2c(C(=O)OC)cc(C3CC3)nc21`, the inhibition was -10.8%. For the compound `Cc1ccc2c(c1)c1c(c(=O)n(-c3cccc(Cl)c3)c(=O)n1CC(=O)NCCC1=CCCCC1)n2C`, the inhibition is -0.483%. For `COc1ccccc1CNC(=O)CCC1N=C2c3ccccc3N=C(SCC(=O)Nc3ccc(F)cc3)N2C1=O` (stereo not drawn), the inhibition is -2.69%. On to `CN(CC(=O)NCc1ccc(Cl)cc1)S(=O)(=O)c1ccc2[nH]c3c(c2c1)CCCC3`, for which the inhibition worked out at 1.16%. Next, `COc1ccc(CNc2nc(-c3ccccc3)nn2S(=O)(=O)c2ccccc2)cc1`: -5.53%. On to `COC(=O)CN1C(C(=O)c2ccccc2)=C(OC(=O)c2ccc(F)cc2)c2ccccc2S1(=O)=O`, for which the inhibition is -19.6%.

As to `Cc1ccc(S(=O)(=O)c2cnc(SCC(=O)Nc3ccc4c(c3)OCCO4)[nH]c2=O)cc1C`, the inhibition is 8.58%.

As for `COc1cc2nc(NC(=O)c3ccc(S(=O)(=O)N4CCc5ccccc54)cc3)sc2cc1OC`, the inhibition was -6.47%.

With `COc1cccc(-n2c(C)nc3cc(C(=O)O)ccc32)c1`, the inhibition stood at 3.98%. For `COc1cccc(-c2nc3c(C#N)c[nH]n3c2NC2CCCC2)c1OC` the value was 4.72%; for `CC1CCCCN1C(=O)c1ccc2c(c1)N(Cc1ccc(F)cc1)C(=O)c1ccccc1S2(=O)=O` (stereo not drawn), 15.3%. For `CCN(CCCNC(=O)c1cc2c(=O)n(CC)c3ccccc3c2s1)Cc1ccccc1` the value was -9.96%. For the compound `Cc1cc(OCC(=O)N2CCC(c3nc4ccccc4s3)CC2)ccc1Cl`, the inhibition was -5.95%. For `O=C(CSc1ncc(-c2ccccc2)[nH]1)Nc1cccc(Br)c1`, the inhibition came to 3.12%. For `Cc1ccc(-c2nnn3c2nc(NC2CCC(C)CC2)c2ccccc23)cc1` (stereo not drawn) the value was 6.51%; for `COc1ccc(CCNC(=O)CSc2nc3[nH]ncc3c(=O)n2-c2ccccc2OC)cc1OC`, active: 36.7%; for `CC(CCc1ccc(O)cc1)NCc1ccc(Br)cc1` (stereo not drawn), active: 31.7%.

`Cc1cc2n(n1)CCCN2C(=O)Nc1ccc(F)c(Cl)c1`: the inhibition came out at 14.2%. Next, `CCC(=O)N1CCc2cc(S(=O)(=O)NCc3ccc(C)cc3)ccc21`: -4.53%; `CCOc1ccc(N2CC(C)Cn3c2nc2c3c(=O)n(Cc3c(F)cccc3Cl)c(=O)n2C)cc1` (stereo not drawn): 7.16%. As for `O=C(Cn1cc(C(=O)c2ccco2)c2ccccc21)Nc1ccccc1`, the inhibition is -2.5%.

Regarding `CCOc1ccc(NC(=O)c2ccc(F)c(S(=O)(=O)N(Cc3ccc(C(=O)OC)cc3)Cc3ccc(OC)c(OC)c3)c2)cc1`, the inhibition turned out to be 7.13%.

As for `CN(C)c1ncc(C(=O)NCc2ccc(Cl)cc2)cn1`, the inhibition worked out at 4.88%. For `COc1ccccc1NC(=O)C1=C(C)Nc2nc3ccccc3n2C1c1ccccc1Cl` (stereo not drawn) the value was 0.834%; for `CC(C)Nc1nc(Cl)nc(NN(C)c2nc(N(C)C)nc(N(C)C)n2)n1`, active: 34.3%. `CC(C)(C)C1CCc2c(sc(NC(=O)c3noc4c3CCCC4)c2C#N)C1` (stereo not drawn): the inhibition stood at 1.48%. Next, `CC(=O)N1CCc2c(sc3c2c(=O)n(-c2ccccc2Cl)c(=O)n3Cc2cccc(C)c2)C1`: 2.93%; `COc1ccccc1NC(=O)CSc1cn(CC(=O)N2CCCC2)c2ccccc12`: 1.23%. With `OCCN(Cc1nc(-c2ccc3c(c2)OCO3)no1)Cc1cccs1`, the inhibition was active: 38.8%. Next, `CCC1CCCCN1C(=O)CSc1nnc(-c2ccc(OC)c(OC)c2)o1` (stereo not drawn): -14.3%. For `CCOC(=O)c1ccc(NC(=O)N2CC3CCCN3c3ccccc32)cc1` (stereo not drawn) the value was -12.9%; for `Cc1ccc2nc(-c3cccs3)c(Nc3ccc4c(c3)OCCO4)n2c1`, -10.3%. Next, `CC(=O)Nc1ccc(OC(=O)c2ccc(Cl)cc2)cc1`: active: 32.9%; `O=C(Cn1cc(S(=O)(=O)N2CCCC2)c(S(=O)(=O)N2CCCC2)c1)Nc1ccc(F)cc1`: 2.84%. As for `CCN(CC)S(=O)(=O)c1ccc2c(c1)N(CC(=O)NCCCN1CCN(c3ccc(OC)cc3)CC1)C(=O)CO2`, the inhibition came to 26.5%.

For orientation: inhibition means the relative decrease from the control value, in per cent.
